Assay results reported in the supplement of paper PMC11417369.
This is one part of the list.

tested on: PfHDP1 homeodomain (GST-tagged); test: gcPBM binding intensity (ln(normalized median fluorescence intensity)); higher = stronger DNA binding
Procedure, shortened: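 GST-fused DNA-binding domains of P. falciparum, expressed in E. coli, were applied at about 25 μg on average for 1 h to an Agilent 4 × 180k array of primer-extended double-stranded 36-bp intergenic genomic probes and negative controls. Binding intensity is the highest Masliner-normalised natural-log median intensity across replicate spots of either probe orientation, measured with Alexa488 anti-GST antibody and a 488 nm scan.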

Sequence	gcPBM binding intensity (ln)
ATATAGGTATAATACACACACTAATATGTAACTGTA [CACACA_site7011]	6.58
GCACAAATCATCAAATGTACAGAAAATGCTGTCAAT [XGTACX_site5037]	6.12
TAAATACCTATATGGCGTACTATTATCATAGTATAT [XGTACX_site5423]	6.27
CACGCATACAGACACACACACACACCCATATATATA [CACACA_site636]	7.24
TTAAAAATAAAACAAAGTACTCAAGTTATTGTCTTT [XGTACX_site1584]	6.26
TATGATATGTATGGAAGTACGAAGAGGGATGATCAG [XGTACX_site1677]	7.05
AACTATATATATAATTCACACATGTTTTAAAATTTT [CACACA_site4971]	6.96
CTATGCATTTATAGTGCATGTAAAATATAAGATAAT [TGCATGCA_site71]	9.31
TATAATTAATTAGAAGTGCATTAGGTAACAACTGTC [GTGCAC_site9746]	8.91
TATAAACCTACATACACACATACAATAAGTAAAATG [CACACA_site1921]	6.77
TACTATGCCCCATATAAACACACAAATAAAAAGAAT [CACACA_site8857]	7.43
ATGTATCATAAGAACTGTGTGGTTACAGACACGAAC [GTGCAC_negctrl_site416]	6.56
TTTCCTTTTTTAATATGTACACATATTATTATATCT [XGTACX_site3079]	6.83
ATATATTCTTATTGCTGTACACATATTTTCTAAAAA [XGTACX_site4851]	8.2
AACGCAGTTTAATATACACACCAAAAAAAAAAAAAG [CACACA_site5643]	6.42
ACATTCTATACATACACACCCACACCCAAAAAAAAA [CACACA_site863]	7.63
TATATATCAATATACACACACACATATTTATTTATA [CACACA_site6858]	6.97
TAACCACAAAAATAAAATCAAAAAAAAAAAAAAAAA [CACACA_negctrl_site1727]	6.21
AAAAATATAATATAATGTACACATAAACAAAAAAAA [XGTACX_site3658]	6.84
TTTCTTAAATATATGCGTACTCAAAATTGTTCTACA [XGTACX_site7995]	6.19
TAAAATAAAACAAACACACACACACCGACACAAAAA [CACACA_site5993]	6.88
ATATATATATATTTCGCACACATAATCTTATTAAAT [CACACA_site2579]	8.86
AACAGACATACATACACACATACATACAGACATACA [CACACA_site1942]	6.99
AAAATTTCATAAAGACGTACTATAAAAATAAAATTA [XGTACX_site4182]	6.45
